# Test results taken from the supplement of paper PMC8728848.
# This is one part of the list.
# B1: F17aG (Escherichia coli), Q99003 (protein)
# chain: MTNFYKVFLAVFILVCCNISQAAVSFIGSTENDVGPSLGSYSRTHAMDNLPFVYDTRNKIGYQNANVWHISKGFCVGLDGKVDLPVVGSLDGQSIYGLTEEVGLLIWMGDTKYSRGTAMSGNSWENVFSGWCVGANTASTQGLSVRVTPVILKRNSSARYSVQKTSIGSIRMRPYNGSSAGSVQTTVNFSLNPFTLNDTVTSCRLLTPSAVNVSLAAISAGQLPSSGDEVVAGTTSLKLQCDAGVTVWATLTDATTPSNRSDILTLTGASTATGVGLRIYKNTDSTPLKFGPDSPVKGNENQWQLSTGTETSPSVRLYVKYVNTGEGINPGTVNGISTFTFSYQ
# Legend:
# Experiment in all cases: glycan array binding signal (z-score within array); higher = stronger binding
# Conditions in all cases: glycan notation: IUPAC condensed, linker removed
# [1] = molecular target: Gal(b1-4)GlcNAc(b1-2)Man(a1-3)Man(b1-4)GlcNAc(b1-4)GlcNAc
# Summary of the method: (§1)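 Negative Z-scores can be read as non-binding. The Z-score is calculated within each array and then averaged across arrays of one protein sequence at different concentrations or buffers and across linkers. Arrays, 3228 in all, were curated from the Consortium for Functional Glycomics database and kept only where the protein sequence was available.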
# [2] = molecular target: Gal(b1-4)GlcNAc(b1-2)Man(a1-3)[Gal(b1-4)GlcNAc(b1-2)Man(a1-6)]Man(b1-4)GlcNAc(b1-4)GlcNAc
# Summary of the method: as §1
# [3] = molecular target: Gal(b1-4)GlcNAc(b1-2)Man(a1-3)[Gal(b1-4)GlcNAc(b1-2)Man(a1-6)]Man(b1-4)GlcNAc(b1-4)[Fuc(a1-6)]GlcNAc
# Summary of the method: as §1
# [4] = molecular target: Gal(b1-4)GlcNAc(b1-2)Man(a1-3)[Gal(b1-4)GlcNAc(b1-2)][GlcNAc(b1-4)]Man(b1-4)GlcNAc(b1-4)GlcNAc
# Summary of the method: as §1
# [5] = molecular target: Gal(b1-4)GlcNAc(b1-2)Man(a1-3)[GlcNAc(b1-2)Man(a1-6)]Man(b1-4)GlcNAc(b1-4)GlcNAc
# Summary of the method: as §1
# [6] = molecular target: Gal(b1-4)GlcNAc(b1-2)Man(a1-3)[Man(a1-6)]Man(b1-4)GlcNAc(b1-4)GlcNAc
# Summary of the method: as §1
# [7] = molecular target: Gal(b1-4)GlcNAc(b1-2)Man(a1-6)Man(b1-4)GlcNAc(b1-4)GlcNAc
# Summary of the method: as §1
# [8] = molecular target: Gal(b1-4)GlcNAc(b1-2)Man(a1-6)[GlcNAc(b1-2)Man(a1-3)]Man(b1-4)GlcNAc(b1-4)GlcNAc
# Summary of the method: as §1
# [9] = molecular target: Gal(b1-4)GlcNAc(b1-2)Man(a1-6)[Man(a1-3)]Man(b1-4)GlcNAc(b1-4)GlcNAc
# Summary of the method: as §1
# [10] = molecular target: Gal(b1-4)GlcNAc(b1-2)[Gal(b1-4)GlcNAc(b1-4)]Man(a1-3)[Gal(b1-4)GlcNAc(b1-2)Man(a1-6)]Man(b1-4)GlcNAc(b1-4)GlcNAc
# Summary of the method: as §1
# [11] = molecular target: Gal(b1-4)GlcNAc(b1-2)[Gal(b1-4)GlcNAc(b1-4)]Man(a1-3)[Gal(b1-4)GlcNAc(b1-2)[Gal(b1-4)GlcNAc(b1-6)]Man(a1-6)]Man(b1-4)GlcNAc(b1-4)GlcNAc
# Summary of the method: as §1
# [12] = molecular target: Gal(b1-4)GlcNAc(b1-2)[Gal(b1-4)GlcNAc(b1-4)]Man(a1-3)[GlcNAc(b1-4)][Gal(b1-4)GlcNAc(b1-2)Man(a1-6)]Man(b1-4)GlcNAc(b1-4)GlcNAc
# Summary of the method: as §1
# [13] = molecular target: Gal(b1-4)GlcNAc(b1-2)[Gal(b1-4)GlcNAc(b1-4)]Man(a1-3)[GlcNAc(b1-4)][Gal(b1-4)GlcNAc(b1-2)[Gal(b1-4)GlcNAc(b1-6)]Man(a1-6)]Man(b1-4)GlcNAc(b1-4)GlcNAc
# Summary of the method: as §1
# [14] = molecular target: Gal(b1-4)GlcNAc(b1-2)[Gal(b1-4)GlcNAc(b1-6)]Man(a1-6)[Gal(b1-4)GlcNAc(b1-2)Man(a1-3)]Man(b1-4)GlcNAc(b1-4)GlcNAc
# Summary of the method: as §1
# [15] = molecular target: Gal(b1-4)GlcNAc(b1-2)[Gal(b1-4)GlcNAc(b1-6)]Man(a1-6)[GlcNAc(b1-4)][Gal(b1-4)GlcNAc(b1-2)Man(a1-3)]Man(b1-4)GlcNAc(b1-4)GlcNAc
# Summary of the method: as §1
# [16] = molecular target: Gal(b1-4)GlcNAc(b1-3)Gal(b1-3)GlcNAc
# Summary of the method: as §1
# [17] = molecular target: Gal(b1-4)GlcNAc(b1-3)Gal(b1-4)Glc
# Summary of the method: as §1
# [18] = molecular target: Gal(b1-4)GlcNAc(b1-3)Gal(b1-4)GlcNAc
# Summary of the method: as §1
# [19] = molecular target: Gal(b1-4)GlcNAc(b1-3)Gal(b1-4)GlcNAc(b1-3)Gal(b1-4)GlcNAc
# Summary of the method: as §1
# [20] = molecular target: Gal(b1-4)GlcNAc(b1-3)Gal(b1-4)[Fuc(a1-3)GlcNAc(b1-6)]Gal(b1-4)Glc
# Summary of the method: as §1
# [21] = molecular target: Gal(b1-4)GlcNAc(b1-3)Gal(b1-4)[Fuc(a1-3)]GlcNAc(b1-3)Gal(b1-4)[Fuc(a1-3)]GlcNAc
# Summary of the method: as §1
# [22] = molecular target: Gal(b1-4)GlcNAc(b1-3)GalNAc
# Summary of the method: as §1
# [23] = molecular target: Gal(b1-4)GlcNAc(b1-3)[Gal(b1-4)GlcNAc(b1-6)]Gal(b1-4)GlcNAc
# Summary of the method: as §1
# [24] = molecular target: Gal(b1-4)GlcNAc(b1-3)[Gal(b1-4)GlcNAc(b1-6)]GalNAc
# Summary of the method: as §1
# [25] = molecular target: Gal(b1-4)GlcNAc(b1-3)[GlcNAc(b1-6)]Gal(b1-4)GlcNAc
# Summary of the method: as §1
# [26] = molecular target: Gal(b1-4)GlcNAc(b1-6)Gal(b1-4)GlcNAc
# Summary of the method: as §1
# [27] = molecular target: Gal(b1-4)GlcNAc(b1-6)Gal(b1-4)GlcNAc(b1-6)GalNAc
# Summary of the method: as §1
# [28] = molecular target: Gal(b1-4)GlcNAc(b1-6)GalNAc
# Summary of the method: as §1
# [29] = molecular target: Gal(b1-4)GlcNAc(b1-6)[Gal(b1-3)]GalNAc
# Summary of the method: as §1
# Gal(b1-6)Gal = molecular target: Gal(b1-6)Gal
# Summary of the method: as §1
# Gal3S(b1-3)GalNAc = molecular target: Gal3S(b1-3)GalNAc
# Summary of the method: as §1
# Gal3S(b1-3)GlcNAc = molecular target: Gal3S(b1-3)GlcNAc
# Summary of the method: as §1
# [30] = molecular target: Gal3S(b1-3)[Fuc(a1-4)]GlcNAc
# Summary of the method: as §1
# Gal3S(b1-4)Glc = molecular target: Gal3S(b1-4)Glc
# Summary of the method: as §1
# Gal3S(b1-4)Glc6S = molecular target: Gal3S(b1-4)Glc6S
# Summary of the method: as §1
# Gal3S(b1-4)GlcNAc = molecular target: Gal3S(b1-4)GlcNAc
# Summary of the method: as §1
# Gal3S(b1-4)GlcNAc6S = molecular target: Gal3S(b1-4)GlcNAc6S
# Summary of the method: as §1
binder,measurement,setting,value
B1,glycan array binding signal (z-score),[1],-0.13
same,glycan array binding signal (z-score),[2],-0.254
same,glycan array binding signal (z-score),[3],-0.127
same,glycan array binding signal (z-score),[4],-0.077
same,glycan array binding signal (z-score),[5],-0.159
same,glycan array binding signal (z-score),[6],-0.142
same,glycan array binding signal (z-score),[7],-0.164
same,glycan array binding signal (z-score),[8],-0.178
same,glycan array binding signal (z-score),[9],-0.145
same,glycan array binding signal (z-score),[10],-0.164
same,glycan array binding signal (z-score),[11],-0.122
same,glycan array binding signal (z-score),[12],-0.123
same,glycan array binding signal (z-score),[13],-0.167
same,glycan array binding signal (z-score),[14],-0.146
same,glycan array binding signal (z-score),[15],-0.192
same,glycan array binding signal (z-score),[16],0.012
same,glycan array binding signal (z-score),[17],-0.147
same,glycan array binding signal (z-score),[18],-0.24
same,glycan array binding signal (z-score),[19],-0.247
same,glycan array binding signal (z-score),[20],-0.178
same,glycan array binding signal (z-score),[21],-0.219
same,glycan array binding signal (z-score),[22],-0.208
same,glycan array binding signal (z-score),[23],-0.174
same,glycan array binding signal (z-score),[24],-0.198
same,glycan array binding signal (z-score),[25],1.53
same,glycan array binding signal (z-score),[26],-0.157
same,glycan array binding signal (z-score),[27],-0.312
same,glycan array binding signal (z-score),[28],-0.205
same,glycan array binding signal (z-score),[29],-0.073
same,glycan array binding signal (z-score),Gal(b1-6)Gal,-0.176
same,glycan array binding signal (z-score),Gal3S(b1-3)GalNAc,-0.244
same,glycan array binding signal (z-score),Gal3S(b1-3)GlcNAc,-0.187
same,glycan array binding signal (z-score),[30],-0.248
same,glycan array binding signal (z-score),Gal3S(b1-4)Glc,-0.241
same,glycan array binding signal (z-score),Gal3S(b1-4)Glc6S,-0.171
same,glycan array binding signal (z-score),Gal3S(b1-4)GlcNAc,-0.155
same,glycan array binding signal (z-score),Gal3S(b1-4)GlcNAc6S,0.15
